# Test results published in PubChem BioAssay (Tox21).
# Several values for one entry are separate records, joined by “and”; a condition that tells them apart may be missing. Equal values may be shown once. The shares of active, inactive and inconclusive entries below differ from those in the screen. Where the call is inconclusive, the potency comes from a doubtful curve fit. Activity calls are given as the source filed them. The call rests on the fitted dose curve; in most records, active means well fitted curve in the direction sought with a large enough effect in the repeat runs; inconclusive means weak or mixed curves; inactive means no such curve, though single readings can be large; an effect the other way counts as inactive or inconclusive.
# Assay: qHTS RealTime-Glo MT Cell Viability Assay in HepG2 cells - 24 hour (AID 1224867); further: nearly all actives have a fitted effect of over 50% in size
# Details: RealTime-Glo luminescence; series mostly up to 76.8 µM; activity change, negative = cytotoxicity: at the top concentration
# How it was run: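 Luminescence read-out: viable HepG2 cells reduce a prosubstrate to a NanoLuc substrate, giving a signal proportional to live cell number. Reads taken at 0, 8, 16, 24, 32 and 40 h of compound exposure at 37 C.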
# Potency means the concentration at half of the fitted maximal effect; tags describe the fitted curve by direction and shape.
row,SMILES,Potency
1,CCN(CCC#N)c1ccc(N=Nc2c(Cl)cc([N+](=O)[O-])cc2Cl)cc1,"inconclusive: 43.6 µM [falling, partial curve]"
2,O[C@@H](CNC[C@H](O)[C@H]1CCc2cc(F)ccc2O1)[C@@H]1CCc2cc(F)ccc2O1,active: 16.9 µM
3,COc1cc(S(=O)(=O)O)c(C)cc1N=Nc1c(O)ccc2cc(S(=O)(=O)O)ccc12,"inconclusive: 49 µM [falling, partial curve, poor fit]"

# Assay: qHTS RealTime-Glo MT Cell Viability Assay in HEK293 cells - 32 hour (AID 1224868); further: nearly all actives have a fitted effect of over 50% in size; on activity change, negative = cytotoxic: top concentration of the series differs between compounds; on the % scale 0 is the no-effect control and ±100 the full control effect
# Details: RealTime-Glo luminescence; series mostly up to 76.8 µM; activity change, negative = cytotoxic: at the top concentration
# How it was run: (§1)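 Nonlytic real-time viability readout: viable cells convert prosubstrate to NanoLuc substrate, giving luminescence proportional to live cell number. HEK293, 600 cells/well, compound added after 5 h, continuous culture at 37 C.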
row,SMILES,Potency
1,COc1ccc(C(=O)c2ccccc2O)c(O)c1,"inconclusive: 34.6 µM [cytotoxic, partial curve]"
2,CCCCC(CC)COC(=O)C(C#N)=C(c1ccccc1)c1ccccc1 (stereo not drawn),"inconclusive: 43.7 µM [cytotoxic, partial curve] and inactive"
3,O[C@@H](CNC[C@H](O)[C@H]1CCc2cc(F)ccc2O1)[C@@H]1CCc2cc(F)ccc2O1,active: 19 µM

# Assay: A CellTox Green Cytotoxicity Assay to monitor cytotoxicity in HEK293 cells - 40 hour (AID 1224871); further: nearly all actives have a fitted effect of over 45% in size; on cytotoxicity increase: on the % scale 0 is the no-effect control and ±100 the full control effect
# Details: CellTox Green fluorescence; series mostly up to 76.8 µM; cytotoxicity increase: at the top concentration
# How it was run: (§2)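 HEK293 cells, 600/well, were preincubated 5 hours and then exposed to compounds at 37 C for up to 40 hours. A cell-impermeant cyanine dye staining dead-cell DNA was read by fluorescence at 0, 8, 16, 24, 32 and 40 h time points.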
SMILES,cytotoxicity increase,Potency
CCCCCCCCN1CCCC1=O,inactive: 10.3%,
COc1ccc(C(=O)c2ccccc2O)c(O)c1,,"active: 34.6 µM and inconclusive: 26.8 µM [activator, single point]"
CCCCC(CC)COC(=O)C(C#N)=C(c1ccccc1)c1ccccc1 (stereo not drawn),,"inconclusive: 61.7 µM [activator, single point]"
O[C@@H](CNC[C@H](O)[C@H]1CCc2cc(F)ccc2O1)[C@@H]1CCc2cc(F)ccc2O1,,active: 26.8 µM

# Assay: qHTS RealTime-Glo MT Cell Viability Assay in HEK293 cells - 16 hour (AID 1224872); further: nearly all actives have a fitted effect of over 50% in size
# Details: RealTime-Glo luminescence; series mostly up to 76.8 µM; activity change, negative = cytotoxicity: at the top concentration
# How it was run: as §1
row,SMILES,Potency
1,COc1ccc(C(=O)c2ccccc2O)c(O)c1,"inconclusive: 38.8 µM [cytotoxic, partial curve]"
2,O=C(Oc1ccccc1)c1ccc2ccccc2c1O,"inconclusive: 38.9 µM [cytotoxic, partial curve]"
3,CCCCC(CC)COC(=O)C(C#N)=C(c1ccccc1)c1ccccc1 (stereo not drawn),"inconclusive: 27.5 µM [cytotoxic, partial curve]"

# Assay: qHTS RealTime-Glo MT Cell Viability Assay in HepG2 cells - 8 hour (AID 1224873); further: nearly all actives have a fitted effect of over 55% in size
# Details: RealTime-Glo luminescence; series mostly up to 76.8 µM; viability change, negative = cytotoxic: at the top concentration
# How it was run: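 Real-time viability: cells seeded at 600 per well together with NanoLuc and cell-permeant prosubstrate, compounds added after 5 h incubation. Luminescence tracked at 0, 8, 16, 24, 32 and 40 h of exposure.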
row,SMILES,Potency
1,CCN(CCC#N)c1ccc(N=Nc2c(Cl)cc([N+](=O)[O-])cc2Cl)cc1,"inconclusive: 49 µM [falling, partial curve]"
2,O[C@@H](CNC[C@H](O)[C@H]1CCc2cc(F)ccc2O1)[C@@H]1CCc2cc(F)ccc2O1,active: 21.3 µM
3,COc1cc(S(=O)(=O)O)c(C)cc1N=Nc1c(O)ccc2cc(S(=O)(=O)O)ccc12,"inconclusive: 54.9 µM [falling, partial curve, poor fit]"

# Assay: A CellTox Green Cytotoxicity Assay to monitor cytotoxicity in HEK293 cells - 24 hour (AID 1224875); further: nearly all actives have a fitted effect of over 45% in size; on activity change: on the % scale 0 is the no-effect control and ±100 the full control effect
# Details: CellTox Green fluorescence; series mostly up to 76.8 µM; activity change: at the top concentration
# How it was run: as §2
row,SMILES,Potency
1,COc1ccc(C(=O)c2ccccc2O)c(O)c1,"inconclusive: 26.8 µM [activator, single point]"
2,CCCCC(CC)COC(=O)C(C#N)=C(c1ccccc1)c1ccccc1 (stereo not drawn),inactive
3,O[C@@H](CNC[C@H](O)[C@H]1CCc2cc(F)ccc2O1)[C@@H]1CCc2cc(F)ccc2O1,active: 26.8 µM

# Assay: A CellTox Green Cytotoxicity Assay to monitor cytotoxicity in HEK293 cells - 32 hour (AID 1224881); further: nearly all actives have a fitted effect of over 40% in size; on cytotoxicity increase: on the % scale 0 is the no-effect control and ±100 the full control effect
# Details: CellTox Green fluorescence; series mostly up to 76.8 µM; cytotoxicity increase: at the top concentration
# How it was run: as §2
SMILES,cytotoxicity increase,Potency
CC(C)(C)CC(C)(C)c1ccc(Nc2ccc(C(C)(C)CC(C)(C)C)cc2)cc1,inactive: 0.962% [at 6.97 µM],
CCC(=O)OC(=O)CC,inactive: 16.8%,
COc1ccc(C(=O)c2ccccc2O)c(O)c1,,"inconclusive: 38.8 µM [activator, partial curve] and inconclusive: 26.8 µM [activator, single point]"
O[C@@H](CNC[C@H](O)[C@H]1CCc2cc(F)ccc2O1)[C@@H]1CCc2cc(F)ccc2O1,,active: 26.8 µM
